# Source: publication PMC7819943, “Rice protein-binding microarrays: a tool to detect cis-acting elements near promoter regions in rice”
# The list shows a part of the results.
# Target: T1, OsWOX13 (Oryza sativa, UniProt Q5QMM3 1-267)
# T1 sequence: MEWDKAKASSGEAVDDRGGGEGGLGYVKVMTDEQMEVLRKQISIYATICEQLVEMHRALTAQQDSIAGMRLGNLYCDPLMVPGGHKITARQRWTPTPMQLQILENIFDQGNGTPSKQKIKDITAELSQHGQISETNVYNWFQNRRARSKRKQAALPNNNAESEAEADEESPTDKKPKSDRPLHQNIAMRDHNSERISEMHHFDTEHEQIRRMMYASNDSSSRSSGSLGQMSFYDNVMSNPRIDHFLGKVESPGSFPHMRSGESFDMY
# Assay: protein-binding microarray (RPBM); PBS, 2% BSA, 51.3 ng/ul salmon testes DNA, 50 uM zinc acetate, 200 nM TF, 25 C, 1 h; high values mean tight binding
# Settings: protein: recombinant; tags: N-terminal polyhistidine and DsRed monomer fusion (pET32a); label: CyDye5-dUTP incorporated in the synthesized complementary strand; 3' TTTTT single-stranded linker to array surface; dsDNA, one strand shown
# Method in brief: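 The binding signal for each feature is its fluorescence intensity in arbitrary units. An Axon 4000B scanner was used to read a custom Agilent array that had been made double-stranded with Cy5-dUTP primer extension, blocked with 2% BSA, incubated at 25 °C for 1 h with 200 nM protein in PBS, 2% BSA, salmon testes DNA and 50 µM zinc acetate, and washed. The protein was an N-terminal polyhistidine–DsRed transcription factor fusion from E. coli BL21-CodonPlus, purified on Ni–NTA.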
row,Sequence,binding signal
1,CTTCCAAATTAACACGATTCTTCTTGCTGCGTTTGCTGATCGGAGTCACCTAGTGCAG,4670 fluorescence intensity (a.u.)
2,TGCAATGATTATTCAGAAGTGGATTATGAATCATGTTTAACGGAGTCACCTAGTGCAG,8930 fluorescence intensity (a.u.)
3,ACCATGTCATTATAATTTTATAAAATTTAAGATATGATATCGGAGTCACCTAGTGCAG,5070 fluorescence intensity (a.u.)
4,GGGTTGTTAATTGTATTGTATTTCTATCACAATTATGATTCGGAGTCACCTAGTGCAG,17000 fluorescence intensity (a.u.)
5,AAAAGCCAATCAGGGCCCGTGCGTGCCAGCAAGTATTATGCGGAGTCACCTAGTGCAG,3620 fluorescence intensity (a.u.)
6,TTTGATTTGTTAATCCAGCTAGTCGTGGGGAATAGTGAAGCGGAGTCACCTAGTGCAG,42700 fluorescence intensity (a.u.)
7,GGAGGTGATGCATAAATCAATTCAAAATGTAACCGCGTGACGGAGTCACCTAGTGCAG,4890 fluorescence intensity (a.u.)
8,CCTGATTTTGTAAGTTAAAGGATATGGTATGATGTTTCTGCGGAGTCACCTAGTGCAG,25500 fluorescence intensity (a.u.)
9,CCCTAAATCATCAATATCAACAGAGATGAAACAACAATGTCGGAGTCACCTAGTGCAG,3890 fluorescence intensity (a.u.)
10,TCATCAAATCAATAATTGATTATATTTTCAAAATAAATTTCGGAGTCACCTAGTGCAG,19700 fluorescence intensity (a.u.)
11,TTAATTATTTGAGCAAATTTAATGGGATGAGGGAATGATGCGGAGTCACCTAGTGCAG,24800 fluorescence intensity (a.u.)
12,CATCTAAATTAGTACGAATCATACTCAGATATCCATAATACGGAGTCACCTAGTGCAG,9670 fluorescence intensity (a.u.)
13,CTTATCCGGCTAACTGACGATAATTATCTTTGAATGCAACCGGAGTCACCTAGTGCAG,13900 fluorescence intensity (a.u.)
14,GAAAATGTTCCATCTGATTATAAATTATTATATTTTGGGACGGAGTCACCTAGTGCAG,4000 fluorescence intensity (a.u.)
15,AACCCTAATCACGCCTAAAAGATATTTATCCCCATCAAACCGGAGTCACCTAGTGCAG,7220 fluorescence intensity (a.u.)
16,GCTTTATTGAAACTCAATCAATTAAACTAAGATGATAAAACGGAGTCACCTAGTGCAG,8520 fluorescence intensity (a.u.)
17,ATCAAGTGATTATTGCTACTGTCCTTTCAACTTGTGCTCACGGAGTCACCTAGTGCAG,15700 fluorescence intensity (a.u.)
18,ATTAGATCAACCAGATTGACTGATCACTTGGGCATGTTGGCGGAGTCACCTAGTGCAG,19700 fluorescence intensity (a.u.)
19,TCATGATTTCTAATATATATATATATATATTTAAGTGAATCGGAGTCACCTAGTGCAG,8640 fluorescence intensity (a.u.)
20,TGGTTAAATGTCAATTTTCTCGTTGGGAGTTGGGAGGGATCGGAGTCACCTAGTGCAG,18500 fluorescence intensity (a.u.)
21,ATAATTGATTGCTTTTGATGATTTCACCCTTATTTTGCTGCGGAGTCACCTAGTGCAG,65100 fluorescence intensity (a.u.)
22,AAATAATGTACAAAAGGTGATAGATGAAACAATAAAGTAGCGGAGTCACCTAGTGCAG,4460 fluorescence intensity (a.u.)
23,GTCTGCTCATTTAATTGGTTTATAAGTGAGTTTACGGTCTCGGAGTCACCTAGTGCAG,11600 fluorescence intensity (a.u.)
24,TCGATGATGTCACTGTCTTAATTGTCCCAAAATATATTTTCGGAGTCACCTAGTGCAG,8090 fluorescence intensity (a.u.)
25,TTCCAATTAGTTCCTTACCATCGTATCATTTCCATCCCTACGGAGTCACCTAGTGCAG,8410 fluorescence intensity (a.u.)
26,CATTGTAATTTGCAAAGCAGCAGCACCCATGCATCATATCCGGAGTCACCTAGTGCAG,4120 fluorescence intensity (a.u.)
27,TCGGATTAATTAGGCTCAAAAGATTGTCTCGCAGTTTTCACGGAGTCACCTAGTGCAG,18900 fluorescence intensity (a.u.)

row,Sequence,binding signal
1,ATATATATTGATTATATGTTTATTTTGTATGAAGATGTTCCGGAGTCACCTAGTGCAG,34900 fluorescence intensity (a.u.)
2,ACTGATTATATTTGTGTAATTTAGTGATTAGCCATATCAGCGGAGTCACCTAGTGCAG,47400 fluorescence intensity (a.u.)
3,CGCAAAATTTTAACTTTTCTGTCACATCGTTCTAATTTCACGGAGTCACCTAGTGCAG,6030 fluorescence intensity (a.u.)
4,GCATTCTTATTGACAAATTGTTTACTTCTATCTGCCTTTTCGGAGTCACCTAGTGCAG,8810 fluorescence intensity (a.u.)
5,ATATTAGATATGTTTAATTCCGTGATGCGTAATAATGCGTCGGAGTCACCTAGTGCAG,3430 fluorescence intensity (a.u.)
6,AGGTCATCAATCAGAATGGAGATGGGAGATGGGGACTGTTCGGAGTCACCTAGTGCAG,23000 fluorescence intensity (a.u.)
7,GATTTAATGGATCACCTGCTATTACAGATTCCTTCAGTTGCGGAGTCACCTAGTGCAG,4210 fluorescence intensity (a.u.)
8,ACTCAATTAGCGTAAAACTAATAAGTATTAACTATTACAACGGAGTCACCTAGTGCAG,9820 fluorescence intensity (a.u.)
9,AATTAAATTTAAGTTGCTGCGGGTGTCTAAATTTATATCGCGGAGTCACCTAGTGCAG,9560 fluorescence intensity (a.u.)
10,GAATCTGATTGGAATGAAGAGAGTAAAATATTCTGCAGTCCGGAGTCACCTAGTGCAG,40000 fluorescence intensity (a.u.)
11,AAGTGATGATTGCTTACTTGCAGGAGCAGGCGCTGTGTCTCGGAGTCACCTAGTGCAG,33800 fluorescence intensity (a.u.)
12,TCCTGATCAAAGTTTGAAATTATTAGCACAGAGAATTTTGCGGAGTCACCTAGTGCAG,5010 fluorescence intensity (a.u.)
13,TTATGTTTCTTAATTATTTAATTGGAAGTAAATTGAATTGCGGAGTCACCTAGTGCAG,22200 fluorescence intensity (a.u.)
14,AGCCTTACATAATTTGATGCTTAACAATGATATCTTATTTCGGAGTCACCTAGTGCAG,6290 fluorescence intensity (a.u.)
15,AATATACCATGATTTGACAATGTGATGATACAGTAAACATCGGAGTCACCTAGTGCAG,10200 fluorescence intensity (a.u.)
16,CTCAATCCTCATCACTGTCTAATTAACCTCATTATCATTTCGGAGTCACCTAGTGCAG,8840 fluorescence intensity (a.u.)
17,TACCGATAATTTATAAGTTATTGTTAGTCAAAGTTAATGGCGGAGTCACCTAGTGCAG,27700 fluorescence intensity (a.u.)
18,GAAAATTGCATTTAGATCCAAGCGAGACTGATTCGAAAATCGGAGTCACCTAGTGCAG,3970 fluorescence intensity (a.u.)
19,GACCGCGTCACTGATTGGCCTGCCTCTCCTCGCACCGGGGCGGAGTCACCTAGTGCAG,12700 fluorescence intensity (a.u.)
20,TGCTCAAATAAATTAAAGTGATAGGAAATAGAAGTATTGGCGGAGTCACCTAGTGCAG,7140 fluorescence intensity (a.u.)
21,TTGATTATCAGAGTAACAAATGCTGAATATTGACCGCCAACGGAGTCACCTAGTGCAG,11400 fluorescence intensity (a.u.)
22,ACCCGAAAACCAATTATGATCACTAATCCATTTGTATTAACGGAGTCACCTAGTGCAG,5580 fluorescence intensity (a.u.)
23,CTGGAGTTCAATCAAATGCTTGATGAGTTGGGCCCTCGTTCGGAGTCACCTAGTGCAG,21800 fluorescence intensity (a.u.)
24,CAAACCAAACGACCAATTAAGCTATCTATTCATCTAGCTGCGGAGTCACCTAGTGCAG,3420 fluorescence intensity (a.u.)
25,TTGATTGCCTATTCCTTTGCATTGAGAACGGCAGATAATGCGGAGTCACCTAGTGCAG,40800 fluorescence intensity (a.u.)
26,ATTGTTTAACTCATTAATTTCTCCAGAGGCAACAGGACTACGGAGTCACCTAGTGCAG,4280 fluorescence intensity (a.u.)
27,GCATTACAAATCATTATTGGCTCCATATGGATGACAGGGACGGAGTCACCTAGTGCAG,6660 fluorescence intensity (a.u.)
